# PubChem BioAssay AID1460 (National Center for Advancing Translational Sciences (NCATS), 2008)
# In all, about 270,000 compounds went through this assay and about 5,800 (2.1%) were called active. The shares of active, inactive and inconclusive entries below differ from those in the screen. Calls come from the whole dose curve; as a rule, active = well fitted inhibition curve with a large enough effect; inconclusive = small, poorly fitted or top-dose-only effect; inactive = flat fitted curve, though single readings scatter. A potency beside an inconclusive call is a rough fit, not a confirmed value.
# Target: Microtubule-associated protein tau (Homo sapiens) (UniProt P10636)
# Sequence of UniProt P10636 (P10636 whole entry, looked up): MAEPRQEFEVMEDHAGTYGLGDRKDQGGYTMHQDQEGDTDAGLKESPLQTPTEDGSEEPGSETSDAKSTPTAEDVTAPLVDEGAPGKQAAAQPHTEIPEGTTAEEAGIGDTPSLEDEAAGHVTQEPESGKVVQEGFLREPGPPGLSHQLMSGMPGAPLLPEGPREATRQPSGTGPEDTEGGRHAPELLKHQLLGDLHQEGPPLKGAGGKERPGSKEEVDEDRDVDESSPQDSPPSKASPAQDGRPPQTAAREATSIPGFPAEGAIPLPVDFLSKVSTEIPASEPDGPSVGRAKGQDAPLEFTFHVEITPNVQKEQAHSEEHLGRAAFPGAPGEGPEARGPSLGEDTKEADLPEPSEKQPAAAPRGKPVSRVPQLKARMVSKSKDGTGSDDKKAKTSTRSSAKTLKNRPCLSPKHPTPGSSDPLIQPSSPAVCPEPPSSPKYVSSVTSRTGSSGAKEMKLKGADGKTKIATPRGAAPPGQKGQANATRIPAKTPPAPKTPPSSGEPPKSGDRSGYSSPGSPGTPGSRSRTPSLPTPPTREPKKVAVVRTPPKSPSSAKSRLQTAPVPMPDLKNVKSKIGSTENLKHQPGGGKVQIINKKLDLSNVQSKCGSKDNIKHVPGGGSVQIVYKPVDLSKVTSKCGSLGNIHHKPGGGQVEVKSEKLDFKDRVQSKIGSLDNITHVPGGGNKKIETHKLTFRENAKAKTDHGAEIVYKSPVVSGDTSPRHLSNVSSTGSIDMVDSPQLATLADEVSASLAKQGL
# Experiment: qHTS for Inhibitors of Tau Fibril Formation, Thioflavin T Binding; note: nearly all actives have a fitted effect of over 55% in size
# Details: recombinant tau K18 P301L (four-repeat tau fragment), heparin-induced fibrillization, ThT fluorescence; series mostly up to 57.4 µM; activity, negative = inhibition: at the top concentration
# Summary of the method: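 Heparin-induced (20 uM) aggregation of recombinant human K18 P301L tau, 15 uM unlabeled with 0.24 uM labeled, pH 7 acetate buffer, 6 hr at 37 C with compound. Fibrils quantified by 30 uM ThT fluorescence after 1 hr ambient incubation.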
# % is set by controls: 0 for no effect and ±100 for the full control effect; potency is the fitted concentration of half-maximal effect; tags give direction and shape of the fitted curve.
Compound,Potency,"activity, negative = inhibition"
CCOC(=O)c1sc(-c2ccc(F)cc2)cc1N,"inconclusive: 8.91 µM [inhibitor, partial curve, poor fit]",
COc1ccc(OC)c(Nc2nc(-c3sc(N)nc3C)cs2)c1,active: 11.2 µM,
O=C(CC1N=C2c3ccccc3N=C(SCC(=O)Nc3ccccc3F)N2C1=O)NCc1ccc2c(c1)OCO2 (stereo unspecified),"inconclusive: 14.1 µM [inhibitor, partial curve]",
CC(C)COc1ccc(C(=O)N2CCC(c3nc4ccccc4s3)CC2)cc1,"inconclusive: 2.82 µM [inhibitor, single point]",
CCOc1ncccc1C(=O)OCC(=O)Nc1ccc(-c2nc3ccc(C)cc3s2)cc1,"inconclusive: 5.01 µM [inhibitor, partial curve]",
CCCCCCCCCCCCC/C=C/[C@@H](O)[C@H](COP(=O)([O-])OCC[N+](C)(C)C)NC(=O)CCCCCCCCCCCCCCCCC,,inactive: -10.8%
CC(C)c1nnc(NC(=O)COc2ccccc2[N+](=O)[O-])s1,"inconclusive: 2 µM [inhibitor, partial curve, poor fit]",
O=C(CSCc1nc2c(nnn2Cc2ccc(F)cc2)c(=O)[nH]1)Nc1c(Cl)cc(Cl)cc1Cl,,inactive: -2.91%
CCOc1ccc2nc(NC(=O)c3nc(SCc4ccc(C)cc4)ncc3Cl)sc2c1,,inactive: -9.87%
CCOc1ccc(C(=O)Nc2ccc3nc4c(c(Nc5ccccc5OC)c3c2)CCCC4)cc1,active: 14.1 µM,
Cc1ccc(Cn2cccc2C2=NC(C)CO2)cc1 (stereo unspecified),"inconclusive: 25.1 µM [inhibitor, single point]",
COc1ccccc1NC(=O)CSC(N)=O,active: 31.6 µM,
CC(C)CCn1c(=O)c2sccc2n2c(CCCC(=O)Nc3ccc(C(C)C)cc3)nnc12,,inactive: 0.47%
S=C(NCCSCc1ccc(Cl)cc1Cl)Nc1ccccc1,,inactive: -14.6%
Cc1ccc(-c2nnn(CC(=O)N(Cc3cccs3)C(C(=O)NC3CCCC3)c3ccco3)n2)o1 (stereo unspecified),,inactive: -5.56%
Cc1cc2n(n1)C(c1ccc3c(c1)OCO3)Nc1c(C)cccc1-2 (stereo unspecified),"inconclusive: 20 µM [inhibitor, partial curve]",
Cc1nc(Nc2ccc(F)cc2)nc(Nc2ccc(F)cc2)c1[N+](=O)[O-],,inactive: -5.12%
Cc1ccccc1CNC(=O)c1ccc(Cn2c(SCc3ccccc3)nc3cccnc32)cc1,,inactive: 2.52%
CCCC(=O)Oc1ccc(N(C(=O)CCC)S(=O)(=O)c2cccc([N+](=O)[O-])c2)cc1,"inconclusive: 25.1 µM [inhibitor, single point]",
CN(C)CCNC(=O)c1cc2ccccc2oc1=O,,inactive: -3.98%
COc1ccccc1Nc1nc(-c2ccc3c(c2)NC(=O)CO3)cs1,active: 14.1 µM,
CCCOCc1cc(CN2CCN(c3ccccc3OC)CC2)c(O)c2ncccc12,"inconclusive: 11.2 µM [inhibitor, partial curve]",
Nn1c(SC/C=C/c2ccccc2)nnc1-c1ccccn1,"inconclusive: 20 µM [inhibitor, partial curve]",
COc1ccc(-n2nnnc2SCC(=O)N2CCCC2)cc1OC,,inactive: -13.7%

Compound,Potency,"activity, negative = inhibition"
CC(=O)N(CCC1(C(C)C)CCOC(C)(C)C1)Cc1ccco1 (stereo unspecified),"inconclusive: 28.2 µM [inhibitor, partial curve, poor fit]",
COc1ccccc1OC(=O)c1cc(Cl)nc2ccccc12,"inconclusive: 25.1 µM [inhibitor, partial curve]",
C=CCN1C(=O)/C(=C\c2cc(Br)c(OCc3ccccn3)c(OC)c2)SC1=S,,inactive: -17.1%
Oc1ccc(Br)cc1C=Nc1ccc2[nH]ncc2c1,"inconclusive: 15.8 µM [inhibitor, partial curve]",
S=C(Nc1cccc(Cl)c1)N(CCCN1CCCC1)Cc1cccn1Cc1ccc(Cl)cc1,"inconclusive: 11.2 µM [inhibitor, partial curve]",
O=C(CCCn1c(=O)[nH]c2ccsc2c1=O)N1CCN(c2ccc(Cl)cc2)CC1,"inconclusive: 1.78 µM [inhibitor, full curve]",
Cc1ccc(C)c(NC(=O)Cn2c(=O)n(CC(=O)NCCc3ccccc3)c(=O)c3ccccc32)c1,,inactive: 11.7%
COc1cccc(C(=O)C[n+]2ccccc2/C=N/O)c1,"inconclusive: 17.8 µM [inhibitor, single point]",
Cc1cccc(-n2c(N)c(C(=O)N3CCN(C)CC3)sc2=S)c1,"inconclusive: 39.8 µM [inhibitor, single point]",
COc1ccc(NC(=O)c2nnn(CC(=O)Nc3cc(C)cc(C)c3)c2N)c(OC)c1,"inconclusive: 0.251 µM [inhibitor, full curve]",
O=C(Cc1c[nH]c2ccccc12)N/N=C/c1ccccc1O,"inconclusive: 4.47 µM [inhibitor, full curve, poor fit]",
CCOC(=O)/C(=N\Nc1ccccc1[N+](=O)[O-])c1csc(N)n1,"inconclusive: 10 µM [inhibitor, partial curve]",
CC(C)c1ccc(C2C3=C(CC(C)(C)CC3=O)NC3=C2C(=O)c2ccccc23)cc1 (stereo unspecified),"inconclusive: 22.4 µM [inhibitor, partial curve]",
CC(=O)c1cccc(NC(=O)Nc2cc3c(cc2N2CCCC2)n(C)c(=O)n3C)c1,"inconclusive: 35.5 µM [inhibitor, single point]",
Cn1c(-c2cc(Br)ccc2O)n[nH]c1=S,,inactive: -2.61%
CCOC(=O)c1ccc(N2Cc3ccccc3C2=NC(=O)c2cccs2)cc1,"inconclusive: 5.01 µM [inhibitor, partial curve]",
CCn1c(-c2ccc([N+](=O)[O-])cc2)n[nH]c1=S,,inactive: -17.7%
CCOC(=O)N1CCC(NC(=O)c2oc3c(c2C)-c2[nH]ncc2CC3)CC1,"inconclusive: 10 µM [inhibitor, partial curve]",
Cc1cc(Br)ccc1SCC(=O)OCC(=O)NCc1ccco1,"inconclusive: 14.1 µM [inhibitor, partial curve, poor fit]",
COc1cccc(NC(=O)Nc2cccs2)c1,"inconclusive: 22.4 µM [inhibitor, partial curve]",
Cc1ccc(NC(=O)C2CCCN(c3ncnc4onc(C)c34)C2)cc1Cl (stereo unspecified),,inactive: 3.13%
COc1ccc(CNC(=O)CSCc2ccccc2Cl)cc1,,inactive: -2.26%
CCn1c(O)c(C2=c3ccccc3=NC2=O)c2cc(Br)ccc21,,inactive: 4.44%
CC(C)CN1C=C2C(=O)C(C)(OC(=O)CCc3ccccc3)C(=O)C=C2C=C1c1ccc(C#N)cc1 (stereo unspecified),"inconclusive: 20 µM [inhibitor, partial curve]",

Compound,Potency,"activity, negative = inhibition"
O=C(c1csc(Nc2cccc3ccccc23)n1)N1CCCC1,"inconclusive: 31.6 µM [inhibitor, single point]",
CCOC(=O)CC(NC(=O)CCc1c(C)nc2cc(-c3ccccc3)nn2c1C)c1ccc(C)cc1 (stereo unspecified),"inconclusive: 28.2 µM [inhibitor, partial curve]",
CC(C)NNC(=O)c1ccncc1,inactive,
Cc1cc(Nc2ccccc2)n(-c2ccc(Br)cc2)n1,"inconclusive: 39.8 µM [inhibitor, single point]",
COc1ccc(/C=C2\SC(=S)N(CC(=O)OCC(=O)Nc3ccc(C)cc3Cl)C2=O)cc1,"inconclusive: 2 µM [inhibitor, partial curve]",
COC(=O)c1ccc(NC(=O)CSc2nc3cc4ccccc4cc3[nH]2)cc1,"inconclusive: 0.708 µM [inhibitor, full curve]",
COc1cc(OC)c(NC(=O)C(C)n2nc(-c3ccc(C)cc3)c3c(c2=O)CCCC3)cc1Cl (stereo unspecified),"inconclusive: 15.8 µM [inhibitor, partial curve, poor fit]",
O=C(Cc1c[nH]c2ccccc12)Nc1nnc(C2CC2)s1,"inconclusive: 11.2 µM [inhibitor, partial curve]",
Cc1ccccc1N1C(=O)C(Cl)=C(N2CCN(c3ccccc3)CC2)C1=O,active: 15.8 µM,
Cc1ccc(-c2cc(C(=O)n3cnc4ccccc43)c3ccccc3n2)cc1C,"inconclusive: 15.8 µM [inhibitor, partial curve]",
Cc1cc(Nc2ccc(Cl)cc2)n(-c2cccc(Cl)c2)n1,"inconclusive: 28.2 µM [inhibitor, single point]",
COc1ccc(C(=O)Oc2ccc(C(=S)N3CCOCC3)cc2)cc1,"inconclusive: 31.6 µM [inhibitor, partial curve]",
COc1ccc(-c2cc(=O)c3ccccc3s2)cc1,"inconclusive: 3.55 µM [inhibitor, full curve]",
COc1cc2ccc(=O)oc2c(CC=C(C)C)c1OC,,inactive: -4.56%
Cc1cccc(N2CCN(C(=S)Nc3ccc4nc(N5CCN(C)CC5)cc(C)c4c3)CC2)c1C,"inconclusive: 3.16 µM [inhibitor, full curve]",
CCc1nnc(SC(CC)C(=O)Nc2cc(C)ccc2C)c2cc3occc3n12 (stereo unspecified),"inconclusive: 10 µM [inhibitor, partial curve]",
O=C(NCC1CCCO1)C(c1cccs1)N(C(=O)c1ccc(-c2ccccc2)[nH]1)C1CCCC1 (stereo unspecified),"inconclusive: 20 µM [inhibitor, partial curve]",
O=C(COC(=O)c1cc(-c2ccccc2)nc2ccccc12)Nc1ccc2c(c1)OCO2,,inactive: -3.62%
CCCCNCCOCCOc1ccc(C)cc1[N+](=O)[O-],,inactive: -3.44%
CC[n+]1c(C)sc2cc(OC)ccc21,"inconclusive: 10 µM [inhibitor, partial curve]",
COc1cccc(/C=C2\SC(=S)N(CC3CCCO3)C2=O)c1 (stereo unspecified),"inconclusive: 15.8 µM [inhibitor, partial curve]",
COc1cc(/C=N/N2C(=O)CSC2=S)cc(Br)c1O,active: 12.6 µM,
O=C(CSc1ncnc2c1nnn2Cc1ccccc1F)N1CCN(c2ccccc2)CC1,"inconclusive: 15.8 µM [inhibitor, partial curve]",
